{"source": "PubChem BioAssay AID1768", "about": "(National Center for Advancing Translational Sciences (NCATS), 2009)", "note": "In all, about 270,000 compounds went through this assay and about 620 (0.23%) were called active. Inconclusive means that the source gave no clear call. Such entries were picked first, then a sample of the others. The call rests on the fitted dose curve; in most records, active means well fitted inhibition curve with a large enough effect in the polarisation, with a control signal flat (not every such curve was filed as active); inconclusive means small, poorly fitted or top-dose-only effect, or effect the other way, or a change in a side signal; inactive means no such curve, though single readings can be large or run the other way; the % refers to the polarisation. Where the call is inconclusive, the potency comes from a doubtful curve fit. A note “side channel” means that the fit belongs to a control or component signal, not to the main read-out. Potency means the concentration at half of the fitted maximal effect; tags describe the fitted curve by direction and shape or compound fluorescence and quenching."}
{"molecular_target": "Menin (Homo sapiens) (UniProt O00255)", "sequence (O00255 whole entry, looked up)": "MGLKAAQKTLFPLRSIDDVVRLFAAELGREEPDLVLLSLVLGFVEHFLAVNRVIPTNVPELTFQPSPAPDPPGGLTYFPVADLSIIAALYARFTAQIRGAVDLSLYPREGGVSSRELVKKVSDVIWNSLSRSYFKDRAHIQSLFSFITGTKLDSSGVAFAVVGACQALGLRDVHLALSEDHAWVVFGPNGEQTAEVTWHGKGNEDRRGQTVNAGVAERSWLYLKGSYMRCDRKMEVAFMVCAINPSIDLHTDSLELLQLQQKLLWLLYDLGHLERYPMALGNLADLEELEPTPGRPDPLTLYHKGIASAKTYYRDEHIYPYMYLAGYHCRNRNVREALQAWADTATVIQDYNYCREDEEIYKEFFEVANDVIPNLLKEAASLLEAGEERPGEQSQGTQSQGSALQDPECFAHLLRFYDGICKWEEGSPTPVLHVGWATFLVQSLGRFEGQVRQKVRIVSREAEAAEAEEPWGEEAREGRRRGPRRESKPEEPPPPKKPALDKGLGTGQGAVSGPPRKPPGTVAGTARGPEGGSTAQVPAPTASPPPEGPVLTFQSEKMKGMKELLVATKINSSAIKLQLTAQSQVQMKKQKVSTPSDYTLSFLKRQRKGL", "experiment": "qHTS Assay for Inhibitors Targeting the Menin-MLL Interaction in MLL Related Leukemias: Competition With Texas Red Labeled MLL-derived Mutant Peptide", "conditions": "fluorescence polarization; series mostly up to 61.6 µM"}
{"smiles": "Nc1nc(CSc2nnnn2-c2ccc(Cl)cc2)nc(N2CCOCC2)n1", "Potency": "inconclusive: 39.8 µM [inhibitor, single point]"}
{"smiles": "c1ccc(-c2nc(-n3ccnc3)nc(-n3ccnc3)n2)cc1", "Potency": "inconclusive: 39.8 µM [inhibitor, single point]"}
{"smiles": "COc1ccccc1N1CCN(Cc2cnc3ccc(Cl)cn23)CC1", "Potency": "inconclusive: 6.31 µM [inhibitor, full curve]"}
{"smiles": "COc1ccc(C(C(=O)NCc2ccccc2)N(Cc2ccc3c(c2)OCO3)C(=O)c2cnccn2)cc1", "note": "(stereo not given)", "Potency": "inconclusive: 7.08 µM [fluorescent, side channel, partial curve]"}
{"smiles": "OC1(c2cccc(C(F)(F)F)c2)CCN(c2ncnc3c2[nH]c2ccc(F)cc23)CC1", "Potency": "inconclusive: 15.8 µM [quencher, side channel, partial curve]"}
{"smiles": "COc1ccc(/C=C2\\CN(Cc3ccccc3)C/C(=C\\c3ccc(OC)c(O)c3)C2=O)cc1O", "Potency": "inconclusive: 28.2 µM [quencher, side channel, single point]"}
{"smiles": "O=C(O)c1ccc2c(=O)n3c(nc2c1)/C(=C/c1ccc(Cl)c([N+](=O)[O-])c1)CC3", "Potency": "inconclusive: 15.8 µM [quencher, side channel, partial curve]"}
{"smiles": "O=C(Nc1ccc(NC(=S)NC(=O)c2ccco2)cc1)c1ccccc1", "Potency": "inconclusive: 39.8 µM [inhibitor, single point]"}
{"smiles": "O=C(N/N=C/c1cn(Cc2ccccc2)c2ccccc12)c1ccncc1", "Potency": "inconclusive: 14.1 µM [quencher, side channel, partial curve]"}
{"smiles": "COc1ccc(C(=O)N(CCc2ccccc2)Cc2ccccc2)c(OC)n1", "Potency": "inconclusive: 4.47 µM [fluorescent, side channel, full curve]"}
{"smiles": "CC1CCCN(C(=S)Nc2ccc(Nc3ccccc3)cc2)C1", "note": "(stereo not given)", "Potency": "inconclusive: 11.2 µM [quencher, side channel, partial curve]"}
{"smiles": "Cc1[nH]c2ccccc2c1C(=O)CSc1ccc(Cl)cc1", "Potency": "inconclusive: 5.62 µM [quencher, side channel, partial curve]"}
{"smiles": "Cn1c(=O)[nH]c(=O)c2c1nc(N(CCO)Cc1ccccc1)n2Cc1ccccc1Cl", "Potency": "inconclusive: 22.4 µM [inhibitor, partial curve, poor fit]"}
{"smiles": "Cc1ccn2cc(-c3nonc3C)cc2c1", "Potency": "inconclusive: 5.01 µM [inhibitor, full curve, poor fit]"}
{"smiles": "CS(=O)(=O)Nc1cccc(-c2ccc3ncnc(Nc4ccc(F)cc4)c3c2)c1", "Potency": "inconclusive: 35.5 µM [quencher, side channel, single point]"}
{"smiles": "COc1ccc(CN2CCN(Cc3ccc(C)cc3)CC2)c(OC)c1", "Potency": "inconclusive: 28.2 µM [fluorescent, side channel, partial curve]"}
{"smiles": "COC(=O)c1ccc(CN2C(=O)NC(c3ccccc3)(c3ccccc3)C2=O)o1", "Potency": "inactive"}
{"smiles": "O=C(Nc1ccccc1C(=O)O)c1ccc2ccccc2n1", "Potency": "inconclusive: 14.1 µM [quencher, side channel, partial curve]"}
{"smiles": "N#C/C(=C\\c1ccc(OCc2ccccc2)cc1)C(=O)Nc1nc2c(s1)CCN(Cc1ccccc1)C2", "Potency": "inconclusive: 31.6 µM [quencher, side channel, single point]"}
{"smiles": "c1ccc(COc2cccc(CNCc3ccccn3)c2)cc1", "Potency": "inconclusive: 3.98 µM [fluorescent, side channel, partial curve]"}
{"smiles": "Cc1ccc(S(=O)(=O)N(CC(=O)N/N=C/c2ccccc2C(=O)O)c2cc(Cl)cc(Cl)c2)cc1", "Potency": "inconclusive: 20 µM [quencher, side channel, partial curve]"}
{"smiles": "Cc1cccc(N2CCN(C(=O)c3cccc(N4C(=O)C5CC=CC(C)C5C4=O)c3)CC2)c1C", "note": "(stereo not given)", "Potency": "inconclusive: 3.55 µM [fluorescent, side channel, full curve]"}
{"smiles": "CC(C)Cc1nc(N2CCN(C(=O)C(C)C)CC2)c(C#N)c2c1CCC2", "Potency": "inconclusive: 20 µM [fluorescent, side channel, partial curve]"}
{"smiles": "CCCCN(C)C(=O)CCCCn1c(=O)[nH]c2cc(OCC)c(OCC)cc2c1=O", "Potency": "inconclusive: 11.2 µM [inhibitor, partial curve]"}
{"smiles": "CC1(C)C([N+](=O)[O-])C(c2ccc(Cl)cc2)NC(c2ccc(Cl)cc2)C1[N+](=O)[O-]", "note": "(stereo not given)", "Potency": "inconclusive: 39.8 µM [inhibitor, single point]"}
{"smiles": "O=C(Cc1ccc(-c2ccccc2)cc1)NC1CCCC1", "Potency": "inconclusive: 39.8 µM [inhibitor, single point]"}
{"smiles": "O=C(CSc1nnc(SCc2cccc3ccccc23)s1)c1ccc2c(c1)OCO2", "Potency": "inconclusive: 25.1 µM [quencher, side channel, single point]"}
{"smiles": "NC(=S)N=Nc1c(O)n(C2OC(=O)c3ccccc32)c2ccccc12", "note": "(stereo not given)", "Potency": "inconclusive: 7.94 µM [quencher, side channel, partial curve]"}
{"smiles": "Cc1cccc(N=Nc2c(O)[nH]c3ccc(Br)cc23)c1", "Potency": "inconclusive: 11.2 µM [quencher, side channel, partial curve]"}
{"smiles": "COc1ccc(CCNC(=O)CCc2cc(OC)c(OC)c(OC)c2)cc1", "Potency": "inconclusive: 39.8 µM [quencher, side channel, single point]"}
{"smiles": "CC(C)CC(NC(=O)C(CC(C)C)NC(=O)C(Cc1ccc(OCc2ccccc2)cc1)NC(=O)OC(C)(C)C)C(N)=O", "note": "(stereo not given)", "Potency": "inconclusive: 2.82 µM [fluorescent, side channel, full curve]"}
{"smiles": "CCOC(=O)CN1C(=O)S/C(=C/c2cccc([N+](=O)[O-])c2O)C1=O", "Potency": "inconclusive: 25.1 µM [quencher, side channel, partial curve]"}
{"smiles": "CC(Nc1nc(-c2ccccc2)nc2ccccc12)c1ccccc1", "note": "(stereo not given)", "Potency": "inconclusive: 15.8 µM [quencher, side channel, partial curve]"}
{"smiles": "O=S(=O)(N/N=C/c1ccc(N2CCOCC2)cc1)c1ccccc1", "Potency": "inconclusive: 39.8 µM [quencher, side channel, single point]"}
{"smiles": "S=c1nc2ccccc2c2nc(-c3ccccc3Cl)[nH]n12", "Potency": "inconclusive: 7.94 µM [quencher, side channel, partial curve]"}
{"smiles": "COc1ccc(N(CC(=O)N2CCC(Cc3ccccc3)CC2)S(C)(=O)=O)cc1", "Potency": "inconclusive: 11.2 µM [fluorescent, side channel, partial curve]"}
{"smiles": "COc1ccc(N2CCN(Cc3cc(=O)oc4cc(-c5ccccc5)c(O)cc34)CC2)cc1", "Potency": "inconclusive: 5.01 µM [quencher, side channel, partial curve]"}
{"smiles": "O=C(Nc1cccc(NC(=O)c2ccccc2Cl)c1)c1ccc([N+](=O)[O-])o1", "Potency": "inconclusive: 22.4 µM [quencher, side channel, single point]"}
{"smiles": "COc1ccc(/C=N/n2cnnc2SCc2ccccc2)cc1", "Potency": "inactive"}
{"smiles": "Cc1cccc(N=C2NN=C(c3c(C)[nH]c4ccccc34)CS2)c1", "Potency": "inconclusive: 8.91 µM [quencher, side channel, partial curve]"}
{"smiles": "COc1ccc(/C=C2/SC(=S)N(CCCC(=O)Nc3ccccc3C(=O)O)C2=O)cc1", "Potency": "inconclusive: 14.1 µM [quencher, side channel, partial curve]"}
{"smiles": "CC1CCCN(C(=O)Cn2nnc(-c3ccccc3F)n2)C1", "note": "(stereo not given)", "Potency": "inconclusive: 10 µM [inhibitor, partial curve, poor fit]"}
{"smiles": "COc1ccc(CC(=O)Nc2cc3oc4ccccc4c3cc2OC)cc1", "Potency": "inactive"}
{"smiles": "CC(C)(C)[C@H]1C=C(C(=O)N2CCN(Cc3ccccc3)CC2)O[C@@H](OCc2ccc(CO)cc2)C1", "Potency": "inconclusive: 3.16 µM [fluorescent, side channel, full curve]"}
{"smiles": "CC1=NN(c2ccccc2)C(=O)C1N=Nc1ccc(N)cc1", "note": "(stereo not given)", "Potency": "inconclusive: 14.1 µM [quencher, partial curve]"}
{"smiles": "COc1ccc(N2C(=O)C3CCCCC3C2=O)cc1NC(=O)c1ccccc1", "note": "(stereo not given)", "Potency": "inconclusive: 15.8 µM [quencher, side channel, partial curve]"}
{"smiles": "COc1ccc(-c2csc(=NCCO)n2-c2ccccc2)cc1", "Potency": "inconclusive: 39.8 µM [inhibitor, partial curve]"}
{"smiles": "Cc1nn(CC(=O)c2ccc(Cl)s2)c(C)c1[N+](=O)[O-]", "Potency": "inconclusive: 39.8 µM [quencher, side channel, single point]"}
{"smiles": "Clc1ccc2c(NCc3ccccc3)ccnc2c1", "Potency": "inactive"}
{"smiles": "Cc1cc(C)c2nc(NNC(=O)c3ccc(S(=O)(=O)N4CC(C)CC(C)C4)cc3)sc2c1", "note": "(stereo not given)", "Potency": "inactive"}
{"smiles": "CC1(C)Cc2ccccc2C(C(Cc2ccccc2)C(N)=O)=N1", "note": "(stereo not given)", "Potency": "inconclusive: 39.8 µM [fluorescent, side channel, single point]"}
{"smiles": "O=C(/C=C/c1ccccc1[N+](=O)[O-])Nc1ccc(S(=O)(=O)Nc2ncccn2)cc1", "Potency": "inconclusive: 31.6 µM [quencher, side channel, single point]"}
{"smiles": "CCOC(=O)C1CCCN(C(=O)c2ccc(Cl)c(S(=O)(=O)N3CCCCCC3)c2)C1", "note": "(stereo not given)", "Potency": "inconclusive: 15.8 µM [fluorescent, side channel, partial curve]"}
{"smiles": "O=C(Nc1nccs1)C1CCN(S(=O)(=O)c2ccc3c(c2)OCCCO3)CC1", "Potency": "inconclusive: 31.6 µM [quencher, side channel, single point]"}
{"smiles": "COc1cc(C(=O)Nc2nc3ccc(S(=O)(=O)N4CCOCC4)cc3s2)cc(OC)c1OC", "Potency": "inconclusive: 25.1 µM [quencher, side channel, single point]"}
